Source: PubChem BioAssay AID360 (National Center for Advancing Translational Sciences (NCATS), 2006)
The campaign covered roughly 48,000 compounds. About 550 (1.1%) were called active. About 4% were inconclusive and are not listed. Rule as the data show it: active = potency below about 15 µM; inconclusive = mostly about 16 µM to 33 µM; inactive = weaker than that. This is one part of the list.

biological target: Lysosomal acid glucosylceramidase (Homo sapiens) (UniProt P04062); assay: Glucocerebrosidase; conditions: purified enzyme, resorufin glucoside fluorescence (screen aimed at inhibitors), 20 min;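 also: the screen sought inhibitors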
Procedure, shortened: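 Wild-type enzyme at 0.2 nM final in 50mM citric acid/KH2PO4, 10mM sodium taurocholate, 0.01% tween-20, pH 5.9, with resorufin beta-D-glucopyranoside at 30 uM final. Compounds titrated, 20 min at RT, red fluorescence read; AC50 from titration.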
Potency is read from the fitted curve at half-maximal effect.

UniProt P04062, sequence (P04062 whole entry, looked up): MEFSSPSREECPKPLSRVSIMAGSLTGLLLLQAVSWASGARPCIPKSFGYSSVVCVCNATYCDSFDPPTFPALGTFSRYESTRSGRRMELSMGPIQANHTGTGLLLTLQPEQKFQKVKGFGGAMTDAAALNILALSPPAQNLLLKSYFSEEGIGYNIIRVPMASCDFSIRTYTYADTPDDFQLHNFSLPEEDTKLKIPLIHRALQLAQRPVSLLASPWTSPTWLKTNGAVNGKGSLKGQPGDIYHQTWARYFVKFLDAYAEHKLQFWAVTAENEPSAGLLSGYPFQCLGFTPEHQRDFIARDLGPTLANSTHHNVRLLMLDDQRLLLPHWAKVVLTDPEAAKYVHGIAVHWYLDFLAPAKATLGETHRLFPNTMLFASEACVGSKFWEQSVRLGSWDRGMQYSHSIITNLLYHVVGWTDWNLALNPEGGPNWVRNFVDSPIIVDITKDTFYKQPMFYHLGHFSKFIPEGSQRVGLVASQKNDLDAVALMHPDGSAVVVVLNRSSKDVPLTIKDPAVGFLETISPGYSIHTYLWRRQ

Potency, inactive:
O=c1cc(N2CCC3(CC2)OCCO3)[nH]c(=O)n1-c1ccc(Cl)cc1 > 76.9 µM
COc1ccc(OC)c(NC(=O)CSc2ccccc2)c1 > 76.9 µM
COCCN(Cc1cc2cccc(C)c2n2nnnc12)C(=O)C(F)(F)F > 76.9 µM
COC(=O)N1CCN(c2ccc(C(C)=O)cc2)CC1 > 76.9 µM
Cc1ccc(C)c2[nH]c(=O)c(CN(Cc3ccco3)C(=O)Nc3ccccc3)cc12 > 76.9 µM
COc1ccc(NC(=O)C2CCCCN2S(=O)(=O)c2ccc(F)cc2)c(OC)c1 (stereo not given) > 76.9 µM
COc1cccc(-c2nnn(CC(=O)NC3CCCC3)n2)c1OC > 76.9 µM
COc1ccc(OC)c(S(=O)(=O)N2CCC(C(=O)NCC3CCCO3)CC2)c1 (stereo not given) > 76.9 µM
COc1ccc(-c2nnc(SCC(=O)N3CCc4ccccc4C3)o2)cc1 > 76.9 µM
CCOc1ccc2nc(NS(=O)(=O)c3ccc4c(c3)n(C)c(=O)n4C)sc2c1 > 76.9 µM
O=C(CCc1ccc(S(=O)(=O)N2CCOCC2)cc1)Oc1ccccc1 > 76.9 µM
O=C(Oc1cccnc1)c1ccc(Cl)c(Cl)c1 > 76.9 µM
O=C(NCc1cccnc1)c1noc2c1CCCC2 > 76.9 µM
O=C(CSc1nnc(-c2ccc(F)cc2)o1)Nc1ccc(S(=O)(=O)N2CCCC2)cc1 > 76.9 µM
O=C(NCC(=O)N(c1ccc2c(c1)OCCO2)C(C(=O)NC1CCCC1)c1ccco1)c1ccco1 (stereo not given) > 76.9 µM
COc1ccc(NC(=O)CCc2nc(-c3ccccc3F)no2)cc1 > 76.9 µM
CCCc1c(C)c2ccccc2[nH]c1=O > 76.9 µM
O=C(c1ccccc1-c1nc(-c2ccccc2)no1)N1CCCC1 > 76.9 µM
COC(=O)Cc1c(C)nc2nc(NCc3ccc(Cl)cc3)[nH]n2c1=O > 76.9 µM
C=CCc1ccccc1OCC(CN1CCCCC1)OC(C)=O (stereo not given) > 76.9 µM
CCNc1cc2n(c(=O)n1)CCc1cc(OC)c(OC)cc1-2 > 76.9 µM
COc1ccc(S(=O)(=O)N(Cc2ccccc2)Cc2nc(-c3ccccc3)no2)cc1 > 76.9 µM
CCc1nnc(NC(=O)CSc2nnc(CNc3ccc(F)cc3)n2C2CCCCC2)s1 > 76.9 µM
COc1ccc(-c2ccc(-c3nnn(CC(=O)N4CCOCC4)n3)cc2)cc1 > 76.9 µM
CCn1c(C)cc(=S)c2ccccc21 > 76.9 µM
Cc1cc(C)n(C(=O)CSc2nnc(SCC(=O)n3nc(C)cc3C)s2)n1 > 76.9 µM
O=C(CSc1nnc(-c2cccs2)n1Cc1ccco1)Nc1ccc2c(c1)OCO2 > 76.9 µM
O=C(Oc1ccccc1)c1cccc(COC(=O)c2cnccn2)c1 > 76.9 µM
O=C(NC(Cc1ccccc1)C(=O)NCc1ccccn1)c1ccco1 (stereo not given) > 76.9 µM
CCOC(=O)CCC(=O)OCC(=O)NC(C)C1CC2CCC1C2 (stereo not given) > 76.9 µM
CC(=O)c1sc(-c2c(C)nc3sccn23)nc1C1CCCC1 > 76.9 µM
CC(C)N(C(=O)Cn1c(SCC(=O)N2CCN(c3ccccc3)CC2)nc2ccccc21)C(C)C > 76.9 µM
CCOC(=O)c1ccccc1NC(=O)CN1C(=O)CCS(=O)(=O)c2ccccc21 > 76.9 µM
O=C1NCCN1C(=O)c1cccc(Cl)c1 > 76.9 µM
CCOC(=O)c1cccc(NC(=O)Cn2c(CC(=O)N3CCCC3)nc3ccccc32)c1 > 76.9 µM
COCCCNC(=O)c1c(N)n(-c2cccc(S(N)(=O)=O)c2)c2nc3ccccc3nc12 > 76.9 µM
O=C(Cn1cnc2c(cnn2-c2ccccc2Cl)c1=O)N1CCc2ccccc21 > 76.9 µM
CN(Cc1cccc(F)c1)C(=O)c1ccc(S(=O)(=O)C(F)F)cc1 > 76.9 µM
Cn1nnnc1SCC(=O)c1c(N)n(C)c(=O)n(C)c1=O > 76.9 µM
O=C(CCSc1ccccc1)NCCN1CCOCC1 > 76.9 µM
CC(=O)N1CCN(Cc2cc(=O)n3cc(Cl)c(C)c(Cl)c3n2)CC1 > 76.9 µM
O=C(CC1(C(F)(F)F)OCCO1)Nc1ccc2c(c1)OCO2 > 76.9 µM
CCc1ccccc1NC(=O)c1nnn(CC(=O)Nc2cccc(C)c2)c1N > 76.9 µM
C=CCc1c(C)nc(SC)nc1Nc1ccc(C(=O)O)cc1 > 76.9 µM
COc1ccc(N/C=C2/CCCCC2=O)cc1 > 76.9 µM
CCN(CC)C(=O)Cn1nc(-c2ccccc2O)nc1SCC(=O)Nc1ccc(OC)cc1 > 76.9 µM
COc1ccc(C2=NCC(CSc3nnc(-c4ccc5c(c4)OCO5)o3)S2)cc1 (stereo not given) > 76.9 µM
CCOc1ncccc1C(=O)OCC(=O)NCCc1ccc(OC)cc1 > 76.9 µM
Nc1cc(N)nc(SCCN2CCCCC2)n1 > 76.9 µM
O=C(Nc1cccc(O)c1)c1ccc(Br)cc1 > 76.9 µM
Cn1c(=O)n(CC(=O)Nc2ccc(F)cc2)c2ccccc21 > 76.9 µM
Cc1cc(O)c2c(-c3ccccc3)cc(=O)oc2c1 > 76.9 µM
COC(=O)c1cccc(C(=O)Oc2cccc(Br)c2)n1 > 76.9 µM
Cc1nc2cc(Cl)c(Cl)cc2nc1C > 76.9 µM
CC(Sc1nc(N2CCOCC2)c2c(c1C#N)CC(C)(C)OC2)C(=O)Nc1ccccc1 (stereo not given) > 76.9 µM
CC(=O)Nc1ccc(S(=O)(=O)NCc2csc(-c3cccnc3)n2)cc1 > 76.9 µM
O=C(CN(Cc1ccc(F)cc1)C(=O)CCC(=O)Nc1ccccn1)NCc1ccco1 > 76.9 µM
CCC1=Nc2ccccc2-c2nnc(SC)nc2O1 > 76.9 µM
Cc1cc(C)c2[nH]c(=O)c(CN(Cc3ccco3)C(=O)C3CCCO3)cc2c1 (stereo not given) > 76.9 µM
COC(=O)c1[nH]c2ccc(C)cc2c1NC(=O)CN1CCN(c2ccccc2)CC1 > 76.9 µM
COc1ccc(NC(=O)CSc2nccn2-c2ccccc2)cc1 > 76.9 µM
Cc1ccc(-n2nnnc2SCC(=O)Nc2ccc3c(c2)COC3=O)cc1C > 76.9 µM
Cc1noc(C)c1S(=O)(=O)N1CCC(C(=O)N2CCC(C)CC2)CC1 > 76.9 µM
Cc1nnc(SCC(=O)c2cc(C)n(-c3ccc4c(c3)OCO4)c2C)s1 > 76.9 µM
NC(=O)c1ccsc1NC(=O)COC(=O)C1CCCN1C(=O)c1cccs1 (stereo not given) > 76.9 µM
CCCc1nc2c(nnn2Cc2ccccc2)c(=O)[nH]1 > 76.9 µM
CCn1c(C)c(CCC(=O)O)c(=O)n2nc(-c3ccccc3OC)cc12 > 76.9 µM
Cc1cc(C)nc(SCc2ccc(C(=O)O)o2)n1 > 76.9 µM
Cc1ccsc1/C=c1\sc2ncnn2c1=O > 76.9 µM
CC(=O)N1CCc2cc(S(=O)(=O)CCC(=O)Nc3cccc(F)c3)ccc21 > 76.9 µM
CC(C)Oc1ccc(C(=O)NCc2ccco2)cc1 > 76.9 µM
C=C(C)Cn1c(CCCNC(=O)C(C)(C)C)nc2ccccc21 > 76.9 µM
NC(=O)CSc1nnc(-c2ccc(S(=O)(=O)N3CCOCC3)cc2)n1Cc1ccccc1 > 76.9 µM
Fc1ccccc1N1CCN(C(c2cccs2)c2nnnn2CCc2ccccc2)CC1 (stereo not given) > 76.9 µM
O=C(CN1CCN(Cc2ccc3c(c2)OCO3)CC1)N1CCc2[nH]c3ccccc3c2C1
COCC(=O)NC1CC2CCCC(C1)N2Cc1ccccc1 (stereo not given) > 76.9 µM
COc1ccc(C(O)C(CC(=O)NCCCOC(C)C)C(=O)NCCCOC(C)C)cc1OC (stereo not given) > 76.9 µM
Cn1cnnc1SCC(=O)Nc1sc2c(c1C#N)CCCCC2 > 76.9 µM
Cc1ccc2c(c1)[nH]c1c(=O)n(CCCN3CCOCC3)cnc12 > 76.9 µM
c1nnn(C23CC4CC(CC(C4)C2)C3)n1 > 76.9 µM
CCOc1ccccc1N(C)C(=O)C1CCN(S(=O)(=O)c2cccc3nonc23)CC1 > 76.9 µM
C=CCn1c(C)cc(C(=O)COc2ncnc3sccc23)c1C > 76.9 µM
O=C(CCN1C(=O)C2C3C=CC(C3)C2C1=O)NCCc1ccccc1 (stereo not given) > 76.9 µM
CCn1c(=O)cc(OCC(=O)Nc2ccc(Cl)cn2)c2ccccc21 > 76.9 µM
CCCn1c(Sc2nnnn2-c2ccccc2)n[nH]c1=O > 76.9 µM
O=C(OCc1cc(Cl)ccc1OC(F)F)c1cc(S(=O)(=O)O)ccc1O > 76.9 µM
Cc1cc(C)c2cc(CN(Cc3cccs3)Cc3nnnn3CC3CCCO3)c(=O)[nH]c2c1 (stereo not given) > 76.9 µM
Cc1nnc(SCc2cc(=O)[nH]c(N3CCN(Cc4ccccc4)CC3)n2)s1 > 76.9 µM
CCOC(=O)c1cc(-c2ccc(N)cc2)sc1N > 76.9 µM
CC1(C)C2CC=C(/C=N/n3cnnc3)C1C2 (stereo not given) > 76.9 µM
